# Test results taken from PubChem BioAssay AID624172 (National Center for Advancing Translational Sciences (NCATS), 2012).
# The campaign covered roughly 380,000 compounds. About 25 (0.007%) were called active. The shares of active, inactive and inconclusive entries below differ from those in the screen. The call rests on the fitted dose curve; in most records, active means well fitted activation curve with a large enough effect; inconclusive means small, poorly fitted or top-dose-only effect; inactive means no such curve, though single readings can be large or run the other way. Potencies of inconclusive entries are left out as doubtful fits.
# Molecular target: Glucagon-like peptide 1 receptor (Homo sapiens) (UniProt P43220)
# UniProt P43220, sequence (P43220 whole entry, looked up): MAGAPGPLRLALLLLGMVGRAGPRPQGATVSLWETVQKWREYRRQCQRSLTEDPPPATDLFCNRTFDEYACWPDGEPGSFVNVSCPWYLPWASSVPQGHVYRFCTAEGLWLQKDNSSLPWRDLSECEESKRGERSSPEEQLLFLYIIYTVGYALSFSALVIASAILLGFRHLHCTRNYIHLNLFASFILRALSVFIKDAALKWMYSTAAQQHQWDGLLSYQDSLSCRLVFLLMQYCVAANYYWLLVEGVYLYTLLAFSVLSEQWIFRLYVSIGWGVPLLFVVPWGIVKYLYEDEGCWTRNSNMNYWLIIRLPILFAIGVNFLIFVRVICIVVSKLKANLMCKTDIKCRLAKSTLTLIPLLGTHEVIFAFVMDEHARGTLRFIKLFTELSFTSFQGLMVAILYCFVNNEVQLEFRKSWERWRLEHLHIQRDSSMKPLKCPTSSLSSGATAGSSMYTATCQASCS
# Assay: qHTS of GLP-1 Receptor Agonists; on activation: % of control where 0% means no effect
# Settings: HEK293 GLP-1R CRE-luciferase, luminescence, 4-6 h, cells express a hypersensitive GLP-1R form; activation: at 45.6 µM (top of the series) unless noted
# Potency means the concentration at half of the fitted maximal effect; tags describe the fitted curve by direction and shape.
Compound,Potency,activation
Cc1ccc(OCc2nc(C#N)c(N3CCCC3)o2)cc1,"inconclusive [activator, single point]",
OCCNc1nc(-c2ccccc2)c2cc(Cl)ccc2n1,"inconclusive [activator, partial curve]",
COc1ccccc1N1CCN(C(=O)/C=C/c2ccco2)CC1,"inconclusive [activator, full curve, poor fit]",
COc1ccc(C(=O)c2ccc(OC)c3cccc(O)c23)cc1OC,"inconclusive [activator, single point]",
CCOc1ccc(-c2cc3nc(C4CCN(C(=O)OC(C)(C)C)CC4)c(C(=O)O)cn3n2)cc1,"inconclusive [activator, partial curve]",
COc1ccc(-c2nc(C#N)c(NCc3ccc(F)cc3)o2)cc1OC,"inconclusive [activator, full curve]",
Cc1ccc(S(=O)(=O)N2CCC(C(=O)NCc3ccccc3CN3CCCC3)CC2)cc1C,,inactive: -0.307%
COc1ccc(N2CCN(CC(=O)Nc3ccccc3SC)CC2)cc1,"inconclusive [activator, partial curve, poor fit]",
CCOC(=O)n1cc(-c2cnc(CNC(=O)C(C)(c3ccccc3)c3ccccc3)o2)c2ccccc21,,inactive: 13.3%
CCCn1nnc2sc3c(c2c1=O)CCC(C)C3 (centres undefined),"inconclusive [activator, single point]",
Cc1cc(Nc2ccc(C)c(Cl)c2)nc(N2CCOCC2)n1,"inconclusive [activator, partial curve, poor fit]",
Cc1ccccc1-c1ocnc1C(=O)Nc1ccccc1NC(=O)c1ccccn1,,inactive: 12.6%
COc1ccc(N2C(=S)N=C(Nc3ccccc3)C23CCCCC3)cc1,,inactive: -5.95%
CC(C)COc1ccc(C(=O)Nc2ccc([N+](=O)[O-])cc2)cc1,,inactive: -1.61%
CCOc1ccc(/C=C/C(=O)N(CC)CC(=O)Nc2ccc3c(c2)OCCO3)cc1OC,,inactive: 16.9%
FC(F)(F)c1cc(-c2ccccc2)nc(NCc2cccnc2)n1,"inconclusive [activator, single point]",
CSCC[C@H](NC(=O)c1cccc([N+](=O)[O-])c1C)c1nc2ccccc2[nH]1,,inactive: -0.344%
COc1ccc(C(C)=O)cc1COc1ccc([N+](=O)[O-])c(C)c1,,inconclusive: 66.3% [activator]
COc1ccc(Nc2nc(N)nc(CSC(=S)N3CCCCC3)n2)cc1,"inconclusive [activator, single point]",
CCC(=O)NC(=S)Nc1ccc(NC(=O)c2ccc(Br)o2)cc1,"inconclusive [activator, single point]",
COc1ccc(C(NC(C)=O)c2nccc3cc(OC)c(OC)cc23)cc1OC (centres undefined),"inconclusive [activator, partial curve, poor fit]",
CCN1C(=S)N[C@@H](c2cccs2)C(C(=O)OC)=C1C,,inactive: -1.91%
O=C(Nc1cccnc1)c1cc2nc(C3CC3)cc(C(F)(F)F)n2n1,"inconclusive [activator, partial curve]",

Compound,Potency,activation
CCN(CC)C(=O)c1ccc(COc2ccccc2Cl)cc1,"inconclusive [activator, partial curve]",
COc1cccc(-c2cc(NC(C)=O)c3ncc(-c4ccc(OC)c(OC)c4)n3c2)c1,,inconclusive: 50.5% [activator]
Cc1cccc(Nc2nc(N)c([N+](=O)[O-])c(N3CC(C)OC(C)C3)n2)c1 (centres undefined),"inconclusive [activator, partial curve, poor fit]",
N#C/C(=C/c1ccc(Sc2nc3ccccc3[nH]2)o1)c1cccc(F)c1,,inactive: -9.17%
COc1ccc(OC)c(NC(=O)CSc2nc3ccccc3c(=O)n2CC2CCCO2)c1 (centres undefined),"inconclusive [activator, partial curve, poor fit]",
COc1ccc(-c2nnc(-c3cccnc3)o2)cc1OC,"inconclusive [activator, single point]",
Cc1ccc2nc3c(cc(S(=O)(=O)c4ccccc4)c(=N)n3C3CCCC3)c(=O)n2c1,,inconclusive: 55.1% [activator]
FC(F)(F)c1cccc(N2CCc3cn[nH]c32)c1,"inconclusive [activator, partial curve, poor fit]",
COc1ccc(OC)c(NC(=O)C2(C)CCN2Cc2ccc(SC)cc2)c1 (centres undefined),"inconclusive [activator, partial curve]",
COC(=O)CSc1nc(-c2cccs2)ccc1C#N,,inactive: 18%
COc1cc(C(=O)N2Cc3cc4ccccc4nc3C2C)cc(OC)c1OC (centres undefined),,inactive: -0.86%
COc1cccc(Cn2cccc(NC(=O)NC3CCCCC3)c2=O)c1,,inactive: 6.88%
CCc1nc2c(OCC(=O)c3ccc(Cl)cc3Cl)cccn2c1N(C)C(=O)COc1ccccc1,,inactive: 2.94%
CCCCCCn1c(N(CC)CC)nc2c1c(=O)[nH]c(=O)n2C,"inconclusive [activator, single point]",
CCNc1nc(NC(C)C)nc(N(C)C#N)n1,"inconclusive [activator, single point]",
COc1ccc(N2C[C@H](CSC)[C@@H](CC(=O)Nc3ccccc3)C2=O)cc1,,inconclusive: 33.9% [activator]
COc1ccccc1OC(=O)c1ccc(SC)cc1OC,"inconclusive [activator, partial curve, poor fit]",
Cc1cc2nn(-c3ccc(F)cc3)nc2cc1NC(=O)c1cccc2ccccc12,,inactive: -2.76%
COc1ccc(C)cc1N(C(=O)c1snc(C(N)=O)c1N)C(C(=O)NC1CCCCC1)c1ccc(C)o1 (centres undefined),,inconclusive: 32% [activator]
O=C(CCCCCn1c(=S)[nH]c2ccc(N3CCOCC3)cc2c1=O)NCc1cccc(Cl)c1,,inactive: 6.36%
CCOC(=O)c1cnc(SC2CC(=O)N(c3ccc(OC)c(OC)c3)C2=O)nc1N (centres undefined),"inconclusive [activator, partial curve, poor fit]",
COc1ccc(/C=N/NC(=O)c2cccnc2)cc1COc1ccc(NC(C)=O)cc1,"inconclusive [activator, partial curve, poor fit]",
CCn1ncc(Br)c1C(=O)Nc1ccc(C(C)C)cc1,"inconclusive [activator, single point]",

Compound,Potency,activation
COc1cccc(-n2c(SCc3ccccc3C)nc3c([nH]c4ccccc43)c2=O)c1,,inactive: 3.65%
CN(CCCC(=O)Nc1ccc(OC(F)F)cc1)S(=O)(=O)c1ccc(F)cc1,,inactive: 3.13%
CCC(=O)O[C@H]1C(O[C@@H]2C(C)[C@H](O[C@H]3C[C@@](C)(OC)C(O)C(C)O3)C(C)C(=O)OC(CC)[C@@](C)(O)C(O)[C@H](C)C(=O)C(C)C[C@]2(C)O)OC(C)CC1N(C)C (some centres undefined),,inactive: 1.87%
Cc1ccc(C)c(Nc2nn3c(=O)c4ccc(C(=O)NC5CCCCC5)cc4nc3s2)c1,,inconclusive: 55.3% [activator]
COc1ccc([C@H](C)NC[C@H](O)c2ccc(O)c(NC=O)c2)cc1,,inconclusive: 74.4% [activator]
O=C(O)[C@@H]1CCCN1C(=O)COc1ccc2c3c(c(=O)oc2c1)CCC3,"inconclusive [activator, single point]",
Cc1ccc(-c2c(C)n3c4c(=O)n(C)c(=O)n(C)c4nc3n2-c2cccc(O)c2)cc1,,inactive: -4.78%
O=C(NCCCN1CCCC1=O)c1cccc(S(=O)(=O)N2CCN(c3ccccc3)CC2)c1,,inactive: -3.04%
COC(=O)C1=CN(c2ccc(F)cc2)C=C(C(=O)OC)C1c1ccc(O)cc1,"inconclusive [activator, partial curve, poor fit]",
CCCn1c(N)c(C(=O)CN2CCN(S(=O)(=O)c3cccc(Cl)c3)CC2)c(=O)[nH]c1=O,,inactive: -6.91%
Cc1cc2ncn(/N=C/c3ccc4c(c3)OCO4)c2cc1C,"inconclusive [activator, partial curve, poor fit]",
CCOC(=O)C1(C)CCCN(C(=O)c2ccc(OC)cc2)C1 (centres undefined),,inconclusive: 39.3% [activator]
CC(=O)Nc1ccc(NC(=O)C2(C)Cc3c(-c4cccc(C(F)(F)F)c4)ccnc3O2)cc1 (centres undefined),"inconclusive [activator, single point]",
CCOc1ccc(C(=O)Nc2ccncc2)cc1,"inconclusive [activator, partial curve]",
O=C1NC(c2cccc([N+](=O)[O-])c2)=CCN1c1ccccc1O,,inactive: -2.03%
COc1ccc(C(=O)N2CCCC(c3ccccc3)C2)cc1 (centres undefined),"inconclusive [activator, partial curve]",
CCN1CCN(C2=C(NS(=O)(=O)c3ccccc3)C(=O)c3ccccc3C2=O)CC1,,inactive: -6.85%
Cc1c(C#N)c(N)nc2c3c(sc12)NC(=O)CC3c1ccc(Cl)cc1 (centres undefined),"inconclusive [activator, partial curve, poor fit]",
CC1CCN(Cc2nnc(-c3cccc(Br)c3)o2)CC1,"inconclusive [activator, partial curve, poor fit]",
O=C(COc1ccc(F)cc1)NCCNC(=O)COc1ccc(F)cc1,,inactive: -1.59%
CSc1nc(N2CCOCC2)c2c3c(sc2n1)CCCC3,"inconclusive [activator, single point]",
COc1cc(/C=N/NC(=O)CSc2ccccn2)ccc1OC(C)C,"inconclusive [activator, single point]",
Cc1coc2c1c(C)cc1oc(=O)c(CC(=O)NCCCCCC(=O)O)c(C)c12,"inconclusive [activator, full curve]",
